# Results as given in the RNAGym collection of RNA variant scans (doi:10.7554/elife.90254).
# The source gives no read counts; variants with many changes may rest on few reads.
# B1: OR4K15 (parent)
# chain: GUUAACGGUCAUAGGCCAUGGAAACUAGGAGCACCAUUUCGCUGCCAGUGAAGAAAUGAACAAAGAAAAUCUGGGCCAGGCAGGCAUCAAAAGAAAUAGUCUUGCGCUCAACCAGAAAGUCUGUAAUCAUUUUAAGGGUA
# Variants of: B1
# Experiment: self-cleavage, relative activity (ratio to wild type); higher = more cleavage; in vitro, sequencing; the parent is a self-cleaving ribozyme
row,Variant,self-cleavage
1,GUUAACGGUCAUAGGACAUGGAGACUAGGAGCACCAUUUCGCUACCAGUGAAGAAAUGAACAAAGAAAAUCUGGGCCAGGCAGGCAUCAAAAGAAAUAGUCUUGCGCUCAACCAGAAAGUCUGUAAUCGUUUUAAGGGUA [C16A A23G G44A A129G],1.08
2,GUUAACGGUCAUAGACCAUGGGAACUAGGAGCACCAUUUCGCUGCCAGUGAAGAAAUGAACAAAGAAAAUCUGGGCCAGGCGGGCAUCAAAAGAAAUAGUCUUGCGCUCAACCAGAAAGUCUGUAAUCAUUUUAAGGGUA [G15A A22G A82G],0.63
3,GUUAACGGUCAUAGACCAUGGAAGCUAGGAGCACCAUUUCGCUGCCAGUGAAGAAAUGAACAAAGAAAAUCUGGGCCAGGCAGGCAUCAAAAGAAAUAGUCUUGCGCUCAACCAGAAAGUCUGCAAUCACUUUAAGGGUA [G15A A24G U124C U130C],0.66
4,GUUAACGGUCAUAUGCCAUGGAAACUAGGAGUACCAUUUCGCUGCCAGUGAAGAGAUGAACAAAGAAAAUCUGGGCCAGGCAGGCAUCAAAAGAAAUAGUCUCGCGCUCAACCAGAAAGUCUGUAAUCAUUUUAAGGGUA [G14U C32U A55G U103C],1.25
5,GUUAACGGUCAUAUGCCAUGGAAACUAGGAGCACCAUUUUGCUGCCAGUGAAGAAAUGAACAAAGAAAAUCUGGGCCAGGCAGGCACCAAAAGAAAUAGUCUUGCGCCCAACCAGAAAGUCUGUAAUCGUUUUAAGGGUA [G14U C40U U87C U108C A129G],0.01
6,GUUAACGGUCAUAUGCCAUGGAAACUAGGAGCACCAUUUAGCUGCCAGUGAAGAAAUGAACAAAGAAAAUCUGGGCCAGGCAGGCAUCAAAAGAAAUAGUCUUGUGCUCAACCAGAAAGUCUGUAAUCAUUUUAAGGGUA [G14U C40A C105U],0.14
7,GUUAACGGUCAUAGCCCAUGGAAACUAGGAGCACCAUUUCGCUGCCAGUGAAGAAAUGAACAAAGAAAGUCUGGGCCAGGCAGGCAUCAAAAGAAAUAGCCUUGCGCCCAACCAGAAAGUCUGUAAUCAUUUUAAGGGUA [G15C A69G U100C U108C],0.03
8,GUUAACGGUCAUAGACCAUGGAAACUAGGAGCACCAUUUCGCUGCCAGUGAAGAAAUGAACGAAGAAAAUCUGGGCCGGGCAGGCAUCAAAAGAAAUAGUCCUGCGCUCAACCAGAAAGUCUGUAAUCAUUUUAAGGGUA [G15A A62G A78G U102C],0.2
9,GUUAACGGUCAUAGACCACGGAAACUAGGAGCACCAUUUCGCUGCCAGUGGAGGAAUGAACAAAGAAAAUCUGGGCCAGGCAGGCAUCAAAAGAAAUAGUCUUGCGCUCAACCAGAAAGUCUAUAAUCAUUUUAAAGGUA [G15A U19C A51G A54G G123A G136A],0.88
10,GUUAACGGUCAUAGACCAUGGAAACUAGGAGCACCAUUUCGCUGCCAGUGAAGAGAUGAACAAAGAGAAUCUGGUCCAGGCAGGCAUCAAAAGAAAUAGUCUUGCGCUCAACCAGAAAGUCUGUAAUCAUUUUAAGGGUA [G15A A55G A67G G75U],0.12
11,GUUAACGGUCAUAGUCCAUGGAAACUAGGAGCACCAUUUCGCUGCCAGUGGAGAAGUGAACAAAGAAGAUCUGGGCUAGGCAGGCAUCAAAAGAAAUAGUCUUGCGCUCAACCAGAAAGUCUGUAAUCAUUUUAAGGGUA [G15U A51G A56G A68G C77U],1.49
12,GUUAACGGUCAUAGACCAUGGGAGCUAGGAGCACCAUUUCGCUGCCAGUGAAGAAAUGAACAAAGAAAAUCUGGGCCAGGCAGGCAUCAAAAGAAAUAGUCUUGCGCUCAACCAGAAAGUCUGUAAACAUUUUAAGGGUA [G15A A22G A24G U127A],0.78
13,GUUAACGGUCAUAGACCAUGGAAACUAGGAGCACCAUUUCGCCGCCAGUGAAGAAAUGAACAAAGAAAAUCUGGGCCAGGCAGGCAUCAAAAGAAAUAGUCUUGCGCUCAACCAGAAAGUCUGUAAUCACUUUAAGGGUA [G15A U43C U130C],0.48
14,GUUAACGGUCAUAGACCAUGGAACCUAGGAGCACCAUUUCGCUGCCAGUGAAGAAAUGAACAAAGAAAAUCUGGGCCAGGCAGGCAUCAAAAGUAAUAGUCUUGCGCUCAACCAGAAUGUCUGUAGUCAUUUUAAGGGUA [G15A A24C A94U A118U A126G],0.83
15,GUUAACGGUCAUAUGCCAUGGAAACUAGGAGCACCAUUUCGCUGCCAGUGAAGAAACGAACAAAGAAAAUCUGGGCCAGGCAGGCAUCAAAGGAAAUAGUCUUGCGCUCAACCAGAAAGUCUGUAAUCAUUUUAAGGGUA [G14U U57C A92G],1.36
16,GUUAACGGUCAUAGACCAUGGAAACUAGGAGCACCAUUUCGCUGCCAGUGAAGAAAUGAACAAAGAAAAUCUGGGCCAGGCAGGCAUCAAAAGAAAUAGUCUUGCGCCCAACCAGAAAGUCUGUAAUCAUUGUAAGGGUA [G15A U108C U132G],0
17,GUUAACGGUCAUAUGCCAUGGAAACUAGGAGCACCAUUUCGCCGCCAGUGAAGAAAUGAACAAAGAAAAUCUGGGCCAGGCAGGCGUCAAAAGAAAUAGUCUUGCGCUCAACCAGAAAGUCUGUAAUCAUUUUAAGGGUA [G14U U43C A86G],1.17
18,GUUAACGGUCAUAGACCAUGGAAACUAGGAGCACCAUUUCGCUGCCAGUGAGGAAAUGAACAAAGGAAAUCUGGGCCAGGCAGGCAUCAAAAGAAAUAGUCUUGCGCUCAACCAGAAAGUCUGUAAUCAUUUUAAGGGUA [G15A A52G A66G],1.11
19,GUUAACGGUCAUAUGCCAUGGAAACGAGGAGCACCAUUUCGCUGCCGGUGAAGAAAUGAGCAAAGAAAAUCUGGGCCAGGCAGGCACCAAAAGAAAUAGUCUUGCGCUCAACCAGAAAGUCUGUAAUCAUUUUAAGGGUA [G14U U26G A47G A60G U87C],0.63
20,GUUAACGGUCAUAGACCAUGGAAACUAGGAGCACCAUUUCGCUGCCAGUGAUGAAAUGAACAAAGAUAAUCUGGGCCAGGCAGGCAUCAAAAGAAAUAGUCUUGCGCUCAACCAGAAAGUCUGUAAUCUUUUUAAGGGUA [G15A A52U A67U A129U],0.54
21,GUUAACGGUCAUAGACCAUGGAUACUAGGGGCACCAUUUCGCUGCCAGUGAAGAAAUGAACAAAGAAAAUCUGGGCCAGGCAGGCAUCAACAGAAAUAGUCUUGCGCUCAACCAGAAAGUCUGUAAUCAUUUUAAGGGUA [G15A A23U A30G A91C],1.25

row,Variant,self-cleavage
1,GUUAACGGUCAUAGUCCAUGGAAACUAGGAGCACCAUUUCGCUGCCAGUGAAGGAAUGAACAAAGAAAAUCUGGGCCAGGGAGGCAUCAAAAGAAAUAGUCUUGUGCUCAACCAGAAAGUCUGUAAUCAUUUUAAGGGUA [G15U A54G C81G C105U],0.01
2,GUUAACGGUCAUAGCCCAUGGAAACUAGGAGCACCAUUUCGCUGCCAGUGAAGAAAUGAACAAAGAAAAUCUGGGCCAGGCAGGCAUCAAAAGAAAUAGUCUUGCACUCAACCAGAAAGACUGUAAUCAUUUUGAGGGUA [G15C G106A U120A A134G],0.01
3,GUUAACGGUCAUAGACCAUGGAAACUAGGAGCACCAUUUCGCCGCCAGUGAAGAAAUGAACAAAGUAAGUCUGGGCCAGGCGGGCAUCAAAAGAAAUAGUCUUGCGCUCAACCAGAAAGUCUGUAAUCAUUUUAAGGGUA [G15A U43C A66U A69G A82G],0.62
4,GUUAACGGUCAUAUGCCAUGGAAACUAGGAGCACCACUUCGCUGCCAGUGAAGAAAUGAACAAAGAAAAUCUGGGCCAGGCAGGCAUCAAAAGAAAUAGUCUUGCUCUCAACCGGAAAGUCUGUAAUCAUUUUAAGGGUA [G14U U37C G106U A114G],0.01
5,GUUAACGGUCAUAGACCAUGGAAACUAGGAGCACCAUUUCGCUGCCAGCGAAGAAAUGAACAAAGAAAAUCUGGGCCAGGCAGGCAUCAAAAGAAAUAGUCUUGCGCUCAACCAGAAAGUCUGUAAUCGUUUUAAGGGUA [G15A U49C A129G],0.28
6,GUUAACGGUCAUAGUCCAUGGAAACUAGGAGCACCACUUCGCUGCCAGUGAAGAAAUGAACAAAGAAAAUCUGGGCCAGGCAGGCAUCAGAAGAAAUAGUCUUGCGCUCAACCAGAAAGUCUGUAAUCAUUUUAAGGGUA [G15U U37C A90G],1.26
7,GUUAACGGUCAUAGUCCAUGGAAACUAGGAGCACCAUUUCGCCGCCAGUGAAGAAAUGAACAGAGAAAAUCUGGGCCAGGCAGGCGUCAAAAGGAAUAGUCUCGCGCUCAACCAGAAAGUCUGUAAUCAUUUUAAGGGUA [G15U U43C A63G A86G A94G U103C],0.12
8,GUUAACGGUCAUAGUCCAUGGAAACUAGGAGCACCAUUUCGCUGCCAGUGAGGAAAUGAACAAAGAAAAUCUGGGCCAGGCAGGUACCAAAAGAAAUAGUCUUGCGCUCAACCAGAAAGUCUGUAAUCAUUUUAAGGGUA [G15U A52G C85U U87C],1.47
9,GUUAACGGUCAUAGCCCAUGGAAACUAGGAGCACCAUCUCGCUGCCAGUGAAGAAACGAACAAAGAAAAUCUGGGCCAGGCAGGCAUCAAAAGAAAUAGUCUUGCGCUCAACCAGAAAGUCUGUAAUCAUUUUAAGGGUA [G15C U38C U57C],0.75
10,GUUAACGGUCAUAGGACAUGGAAACUAGGAGCACCAUUUCGCUGCCAGUGGAGAAAUGAACAAAGGAAAUCUGGGCCAGGCAGGCAUCAAAAGAAAUAGUCUCGCGCCCAACCAGAAAGUCUGUAAUCAUUUUAAGGGUA [C16A A51G A66G U103C U108C],0.02
11,GUUAACGGUCAUAGACCAUGGAAACUAGGAGCACCAUUUCGCUGCCAGAGAGGAAAUGAACAAAGAAAAUAUGGGCCAGGCAGGCAUCAAAAGAAAUAGUCUUGCGCUCAACCAGAAAGUCUGUAAUCAUUUUAAGGGUA [G15A U49A A52G C71A],0.38
12,GUUAACGGUCAUAGUCCAUGGAGACUAGGAGCACCAUUUCGCUGCCAGUGAAGAAAUGAACAAAGAAAGUCUGGGCCAGGCAGGCAUCAAAAGAAAUAGUCCUGCGCUCAACCAGAAAGUCUGUAAUCAUUUUAAGGGUA [G15U A23G A69G U102C],1.97
13,GUUAACGGUCAUAGACCAUGGAGACUAGGAGCACCAUUUCGCUGCCAGUGAAGAAAUGAACAAAGAAAAUCUGGGCCAGGCAGGCAUCAAAAGAAAUAGUCUUGCGCUCCACCAGAAAGUCUGUAAUCAUUUUAAGGGUA [G15A A23G A110C],0.23
14,GUUAACGGUCAUAGACCAUGGAGACUAGGAGCACCAUUUCGCUGCCAGUGGAGAAAUGAACAAAGAAAAUCUGGGCCAGGCAGGCAUCAAAAGAAAUAGUCUUGCGCUCAACCAGAAAGUCUGUAAUCAUAUUAAGGGUA [G15A A23G A51G U131A],1.64
15,GUUAACGGUCAUAGACCAUGGAGACUAGGAGCACCAUUUCGCUGCCAGUGAAGAAAUGAACAAAGAAAAUCUGGGCCAGGCAGGCAUCAAAAGAAAUAGCCUUGCGCUCAACCAGAAAGUCUGUAAUCAUUUUAAGGGUA [G15A A23G U100C],1.72
16,GUUAACGGUCAUAGUCCAUGGAAACUAGGAGCACCAUUUCGCUGCCAGUGAAGAAGUGAACAAAGAAAAUCUGGGCCAGGCAGGCAUCAAAAGAAAUAGUCUUGCGCUCAACCAGAAAGCCUGUAAUCACUUUAAGGGUA [G15U A56G U120C U130C],0.51
17,GUUAACGGUCAUAGACCAUGGAAACUAGGAGCACCAUUUCGCUGCCAGUGAAGAAAUGGACAAAGAAAAUCUGGGCCAGGCAGGCAUCAAAAGAAAUAGUCUUGUGCUCAACCAGAAAGUCUGUAAUCAUUUUAAGGGUA [G15A A59G C105U],0.18
18,GUUAACGGUCAUAGCCCAUGGAAACUAGGAGCACCAUUUCGCUGCCAGUGAAGAAAAGAACAAAGAAAAUCUGGGCCAGGCAGGCAUCAAAAGAAGAAGUCUUGCGCUCAAUCAGAAAGUCUGUAAUCAUUUUAAGGGUA [G15C U57A A96G U97A C112U],0.01
19,GUUAACGGUCAUAGACCAUGGAAACUAGGAGCACCACUUCGCUGCCAGUGAAGAAAUGAGCAAAGAAAAUCUGCGCCAGGCAGGCAUCAAAAGAAAUAGUCUUGCGCUCAACCAGAAAGUCUGUAACCAUUUUAAGGGUA [G15A U37C A60G G74C U127C],0.03
20,GUUAACGGUCAUAGCCCAUGGAAACUAGGAGCACCAUUUCGCUGCCAGUGAAGAAAUAAACAAAGAAAAUCUGGGCCAGGCAGGCAUCAAAAGAAAUAGUCUUGCGCUCAACCAGAAAGUCUGUAAUCAUUUUAGGGGUA [G15C G58A A135G],1.58
